In all, about 33,000 sequences were measured (“E-score (-0.5 to 0.5)”: median about -0.036, highest 2% from about 0.37 on). Some of the results follow.
Each sequence was assayed against T1, Yer064c (UniProt P40041) (assay: PBM E-score (8-mer binding enrichment) (E-score (-0.5 to 0.5)); higher = stronger / more preferred TF binding; most listed sequences are background and not binding sites). Conditions: protein concentration: 200 nM; construct: GST-full length.
T1 sequence: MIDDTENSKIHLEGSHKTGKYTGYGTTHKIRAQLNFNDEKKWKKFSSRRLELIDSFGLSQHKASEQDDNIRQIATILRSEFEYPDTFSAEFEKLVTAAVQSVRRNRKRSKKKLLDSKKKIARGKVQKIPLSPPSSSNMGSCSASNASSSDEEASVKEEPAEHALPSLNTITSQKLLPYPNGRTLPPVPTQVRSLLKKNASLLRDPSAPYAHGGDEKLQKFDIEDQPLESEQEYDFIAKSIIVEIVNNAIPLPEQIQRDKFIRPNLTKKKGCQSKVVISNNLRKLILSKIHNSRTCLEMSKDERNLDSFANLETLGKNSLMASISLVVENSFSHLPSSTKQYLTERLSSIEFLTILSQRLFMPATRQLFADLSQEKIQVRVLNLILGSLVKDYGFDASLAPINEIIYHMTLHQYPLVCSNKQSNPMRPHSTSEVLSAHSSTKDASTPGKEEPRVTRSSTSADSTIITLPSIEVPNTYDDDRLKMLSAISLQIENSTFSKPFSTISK
Protocol: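 Universal 'all 10-mer' protein binding microarrays (Agilent AMADID 015681) probed with GST-tagged S. cerevisiae TFs (full-length or DBD) made by in vitro transcription/translation (PURExpress), about 100-200 nM. Bound TF was detected with fluorescent anti-GST. Each ungapped 8-mer (which stands for itself and its reverse complement) is scored by the PBM enrichment score (E-score), a modified Wilcoxon-Mann-Whitney statistic from -0.5 to +0.5, computed with the Universal PBM Analysis Suite. Scale: above 0.35 generally sequence-specific binding.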

Sequence | PBM E-score
AATAGGTG | -0.123
ACCCCTAC | -0.083
AAAAACAT | 0.00993
AGCCCTAT | -0.154
CTTACACC | -0.0859
CTTGGACA | -0.0882
CGTAGAAA | -0.01
GAAACTTA | 0.00118
CAGTCGCC | 0.254
TGAACCCA | 0.0604
AGGAAGCA | -0.157
AGATTCAT | 0.295
AGTTTTTA | 0.0774
CAAGTGGA | -0.178
CCTGAGGA | 0.00765
AATCTGGT | -0.0281
CACAACAA | -0.0531
CGTACTAC | -0.0626
AGCCGGAT | -0.0486
AAACTTTA | -0.0221
ATAGGCTG | 0.0794
AGCCTTGC | -0.217
ACTATGTC | 0.26
AGTCAGGG | 0.439
GCTTCGAC | -0.126

Sequence | PBM E-score
ACGTAGGG | -0.216
GAGGATCA | 0.173
CGAGCAGC | -0.0962
TGCGGCCA | -0.199
AGATGGAA | -0.0748
AATTTAGT | 0.363
GTGGTTGA | 0.123
AAGGCGTA | -0.221
CGGTTCGC | -0.159
CCAAATGG | -0.0901
CCTAGGTA | -0.158
AGGCTCAG | 0.102
GGCGGAAA | -0.269
ATACCCCC | -0.305
CGGGAAAC | -0.0906
CCCCTTTA | -0.109
CGGTCGTC | -0.0631
ACCATGGT | 0.265
ACTCTGAG | 0.209
GAGAACCA | -0.0378
CACGGGAA | -0.119
CCCCCACC | -0.414
ATACTCTC | 0.00838
CCCAGACG | -0.316
GCTACGCC | -0.224

Sequence | PBM E-score
GAGGGAAA | -0.222
ATCTCTTG | -0.108
CTCCCATA | -0.162
AGGGCACT | -0.364
CCGTAACC | 0.0426
ATTGCAGA | 0.0849
ACAGCCAC | 0.0513
CACCCTGG | -0.137
CCTCATGC | -0.144
ATCGTCCG | 0.00381
AAATTCAT | 0.0587
ACTTCATG | 0.00651
CACCCGTA | -0.0573
CCGCGAAC | -0.0811
AACAGTTA | 0.0987
AGAGGAGC | -0.0689
AATCCATG | 0.106
ACGCGCCG | -0.215
GGACCACA | -0.147
CGTTTTAG | -0.0279
ACGAAGTA | -0.0527
GCTCAGGA | 0.188
AAAGTGTT | -0.0823
CGGCAAAC | -0.212
ACATCGCT | -0.114

Sequence | PBM E-score
GGACTGTA | 0.0239
ACTCGGGG | 0.104
AGGTTCCA | -0.102
AGGCAGAT | -0.108
AATGCGGT | -0.252
CCTCCAGA | -0.201
ATCATTGG | 0.233
CATCCCTC | -0.225
GGAGTCCA | 0.243
TAATTAAA | 0.0874
TAAATGCA | -0.0221
TAATCGCA | 0.256
AGTCAGAG | 0.428
AAGAGAAG | 0.0383
AGCGTTGC | -0.278
AGTGTTGC | -0.0061
CAACGGCG | -0.247
ACTCCGCC | 0.136
ACTCACCC | 0.401
TAGAACGA | 0.135
ACGACAGG | -0.0834
AATATGTA | 0.0357
AGGTTCGC | -0.122
TGAACGAA | -0.0706
CAAGTGAA | 0.0855

Sequence | PBM E-score
ATACACCC | 0.044
AAGCTTAC | 0.0786
TCGGTGAA | 0.164
TAACATGA | 0.311
GAGGGAGA | 0.0527
CGCCCTGC | -0.181
AAAACCTC | -0.0989
CAGTGCTC | 0.0856
ATTAAGCA | -0.0338
ACTGTGCA | 0.1
TGAGGCCA | -0.0565
CGAGGTTA | -0.102
CCTTTTTA | -0.00627
CGTAAATC | 0.0598
CATTGGAC | -0.0943
AGCCTACG | -0.105
AAGCGTAC | -0.081
AATCTATA | 0.108
ATAGGATG | 0.0522
CGGGGTGA | 0.104
AGCGAGGC | -0.282
AGTCCGCC | 0.293
CACGTACA | 0.0316
ATAGTAAG | 0.077
GACTTCGA | 0.267

Sequence | PBM E-score
CAGCTTCG | -0.0681
GCGAGTTA | 0.039
GATTTAGA | 0.203
CGCAACCG | -0.225
AAATGAAG | 0.0192
ACAAACCA | -0.0464
ACTGCTGA | 0.16
AACGCGCA | -0.0783
AGATCAAA | 0.048
AGAATAAG | 0.0158
CCTGTAGA | -0.262
GCCATCTA | 0.0354
ATACCCTG | -0.232
ATAATAAC | -0.124
ACTCCACG | 0.0785
CTGAGTAA | 0.204
CTAAGCCA | 0.0157
AAAAAATT | -0.0792
AGTCCCAG | -0.0136
GGGCCGCA | -0.28
CCGTTAAC | -0.0544
CTCCTTGA | 0.0328
AGTTGGAC | -0.0344
ACGAGTAT | 0.135
CACCAGGG | -0.167

Sequence | PBM E-score
ACCAAGCT | 0.124
CATGTTGG | -0.0775
GGCAATCA | 0.283
AAACGGAA | -0.101
GCGGAGGA | -0.216
CCTATGGA | -0.0997
CCAGACGC | -0.185
CAACTAAC | 0.132
ACGCGTGG | -0.0261
CCTGGTGC | -0.136
TGCCCAAA | -0.271
AAGGTGGG | -0.0618
AACCTAAC | -0.172
GGCATTTA | -0.255
CCAGATAA | 0.16
AAGTGCCT | -0.165
ACCCTGCG | -0.147
ATGTGTAC | 0.193
AGCACTAC | 0.0977
ATGAGCTG | -0.109
ATAGCGCC | -0.106
CAAGCAGA | -0.138

— the supplement of paper PMC3334620
